This passage reports binding results from PMC5501724, “Structural Basis for Specific Interaction of TGFβ Signaling Regulators SARA/Endofin with HD-PTP” (Structure(London, England:1993), 2017).

The target in assay [1] is T1, HD-PTP_(Bro1-CC), yeast two-hybrid construct (human) (UniProt Q9H3S7).
T1 sequence: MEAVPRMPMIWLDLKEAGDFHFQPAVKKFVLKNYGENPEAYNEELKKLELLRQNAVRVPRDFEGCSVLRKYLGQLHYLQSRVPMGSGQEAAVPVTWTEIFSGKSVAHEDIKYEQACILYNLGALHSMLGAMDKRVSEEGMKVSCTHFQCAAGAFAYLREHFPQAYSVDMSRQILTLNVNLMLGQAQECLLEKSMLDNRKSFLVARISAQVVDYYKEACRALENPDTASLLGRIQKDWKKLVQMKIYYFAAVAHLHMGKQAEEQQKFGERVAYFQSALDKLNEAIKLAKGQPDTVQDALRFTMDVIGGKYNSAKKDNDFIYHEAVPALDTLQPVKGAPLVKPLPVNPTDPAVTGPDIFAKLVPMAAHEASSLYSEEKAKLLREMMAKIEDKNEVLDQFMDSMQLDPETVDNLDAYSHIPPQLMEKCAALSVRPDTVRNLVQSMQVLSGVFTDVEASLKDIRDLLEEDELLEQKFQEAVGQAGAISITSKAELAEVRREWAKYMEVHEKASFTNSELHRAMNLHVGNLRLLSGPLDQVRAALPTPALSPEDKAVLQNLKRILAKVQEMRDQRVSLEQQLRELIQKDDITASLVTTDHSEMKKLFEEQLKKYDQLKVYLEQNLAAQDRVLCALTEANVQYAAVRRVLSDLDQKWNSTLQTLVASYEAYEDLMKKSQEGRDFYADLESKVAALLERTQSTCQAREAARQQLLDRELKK
The assay can be described thus: two-hybrid; directed yeast two-hybrid, Clontech Matchmaker Gold, Y2H Gold strain; interactions selected on QDO plates with 0.4% glucose and 1% galactose; in triplicate.

Assay [2] deals with HD-PTPFL (full-length), yeast two-hybrid construct (human) (UniProt Q9H3S7). The description is as above.

Where a chain is given by its changes, count along the chain named. Numbers in names are those of the source. No constants are given. Whether binding was seen depends on the method and setting. Some results given as binding are weak or reduced against the parent protein; the word gives no strength.

B1: endofin(1–84), yeast two-hybrid construct (domain or fragment, UniProt Q7Z3T8 1-84)
chain: MDSYFKAAVSDLDKLLDDFEQNPDEQDYLQDVQNAYDSNHCSVSSELASSQRTSLLPKDQECVNSCASSETSYGTNESSLNEKT
For the molecule B1, the binding entry in assay [1] and in assay [2] was “binds” in each case.

B2: endofin(1–84) L15E, yeast two-hybrid construct (domain or fragment, UniProt Q7Z3T8 1-84)
chain: B1 chain with L15E
Regarding B2, the binding result in assay [1] is “no binding”.

B3: endofin(1–84) L15P, yeast two-hybrid construct (domain or fragment, UniProt Q7Z3T8 1-84)
chain: B1 chain with L15P
On to B3, for which the binding result in assay [1] was “no binding”.

B4: endofin(1–84) L15V, yeast two-hybrid construct (domain or fragment, UniProt Q7Z3T8 1-84)
chain: B1 chain with L15V
With B4, the binding entry in assay [1] is “binds”.

B5: GST-CHMP4B (1-224), bacterially expressed (natural protein, human, UniProt Q9H444 1-224, looked up)
chain: MSVFGKLFGAGGGKAGKGGPTPQEAIQRLRDTEEMLSKKQEFLEKKIEQELTAAKKHGTKNKRAALQALKRKKRYEKQLAQIDGTLSTIEFQREALENANTNTEVLKNMGYAAKAMKAAHDNMDIDKVDELMQDIADQQELAEEISTAISKPVGFGEEFDEDELMAELEELEQEELDKNLLEISGPETVPLPNVPSIALPSKPAKKKEEEDDDMKELENWAGSM
notes: CHMP4B, residues 1-224, full length; In pGEX-4T1; also called CHMP4B-FL; full length GST-CHMP4B; source: E. coli C41 (DE3), purified (GSTrap HP)
With B5, the binding result in assay [1] was “binds”.

B6: endofin(85–1,539), yeast two-hybrid construct (domain or fragment, UniProt Q7Z3T8 85-1539)
chain: LKGLTSIQNEKNVTGLDLLSSVDGGTSDEIQPLYMGRCSKPICDLISDMGNLVHATNSEEDIKKLLPDDFKSNADSLIGLDLSSVSDTPCVSSTDHDSDTVREQQNDISSELQNREIGGIKELGIKVDTTLSDSYNYSGTENLKDKKIFNQLESIVDFNMSSALTRQSSKMFHAKDKLQHKSQPCGLLKDVGLVKEEVDVAVITAAECLKEEGKTSALTCSLPKNEDLCLNDSNSRDENFKLPDFSFQEDKTVIKQSAQEDSKSLDLKDNDVIQDSSSALHVSSKDVPSSLSCLPASGSMCGSLIESKARGDFLPQHEHKDNIQDAVTIHEEIQNSVVLGGEPFKENDLLKQEKCKSILLQSLIEGMEDRKIDPDQTVIRAESLDGGDTSSTVVESQEGLSGTHVPESSDCCEGFINTFSSNDMDGQDLDYFNIDEGAKSGPLISDAELDAFLTEQYLQTTNIKSFEENVNDSKSQMNQIDMKGLDDGNINNIYFNAEAGAIGESHGINIICEIVDKQNTIENGLSLGEKSTIPVQQGLPTSKSEITNQLSVSDINSQSVGGARPKQLFSLPSRTRSSKDLNKPDVPDTIESEPSTADTVVPITCAIDSTADPQVSFNSNYIDIESNSEGGSSFVTANEDSVPENTCKEGLVLGQKQPTWVPDSEAPNCMNCQVKFTFTKRRHHCRACGKVFCGVCCNRKCKLQYLEKEARVCVVCYETISKAQAFERMMSPTGSNLKSNHSDECTTVQPPQENQTSSIPSPATLPVSALKQPGVEGLCSKEQKRVWFADGILPNGEVADTTKLSSGSKRCSEDFSPLSPDVPMTVNTVDHSHSTTVEKPNNETGDITRNEIIQSPISQVPSVEKLSMNTGNEGLPTSGSFTLDDDVFAETEEPSSPTGVLVNSNLPIASISDYRLLCDINKYVCNKISLLPNDEDSLPPLLVASGEKGSVPVVEEHPSHEQIILLLEGESFHPVTFVLNANLLVNVKFIFYSSDKYWYFSTNGLHGLGQAEIIILLLCLPNEDTIPKDIFRLFITIYKDALKGKYIENLDNITFTESFLSSKDHGGFLFITPTFQKLDDLSLPSNPFLCGILIQKLEIPWAKVFPMRLMLRLGAEYKAYPAPLTSIRGRKPLFGEIGHTIMNLLVDLRNYQYTLHNIDQLLIHMEMGKSCIKIPRKKYSDVMKVLNSSNEHVISIGASFSTEADSHLVCIQNDGIYETQANSATGHPRKVTGASFVVFNGALKTSSGFLAKSSIVEDGLMVQITPETMNGLRLALREQKDFKITCGKVDAVDLREYVDICWVDAEEKGNKGVISSVDGISLQGFPSEKIKLEADFETDEKIVKCTEVFYFLKDQDLSILSTSYQFAKEIAMACSAALCPHLKTLKSNGMNKIGLRVSIDTDMVEFQAGSEGQLLPQHYLNDLDSALIPVIHGGTSNSSLPLEIELVFFIIEHLF
With B6, the binding result in assay [1] and in assay [2] was “no binding” throughout.

B7: full-length SARA, yeast two-hybrid construct (protein, UniProt O95405 1-1425)
chain: MENYFQAEAYNLDKVLDEFEQNEDETVSSTLLDTKWNKILDPPSHRLSFNPTLASVNESAVSNESQPQLKVFSLAHSAPLTTEEEDHCANGQDCNLNPEIATMWIDENAVAEDQLIKRNYSWDDQCSAVEVGEKKCGNLACLPDEKNVLVVAVMHNCDKRTLQNDLQDCNNYNSQSLMDAFSCSLDNENRQTDQFSFSINESTEKDMNSEKQMDPLNRPKTEGRSVNHLCPTSSDSLASVCSPSQLKDDGSIGRDPSMSAITSLTVDSVISSQGTDGCPAVKKQENYIPDEDLTGKISSPRTDLGSPNSFSHMSEGILMKKEPAEESTTEESLRSGLPLLLKPDMPNGSGRNNDCERCSDCLVPNEVRADENEGYEHEETLGTTEFLNMTEHFSESQDMTNWKLTKLNEMNDSQVNEEKEKFLQISQPEDTNGDSGGQCVGLADAGLDLKGTCISESEECDFSTVIDTPAANYLSNGCDSYGMQDPGVSFVPKTLPSKEDSVTEEKEIEESKSECYSNIYEQRGNEATEGSGLLLNSTGDLMKKNYLHNFCSQVPSVLGQSSPKVVASLPSISVPFGGARPKQPSNLKLQIPKPLSDHLQNDFPANSGNNTKNKNDILGKAKLGENSATNVCSPSLGNISNVDTNGEHLESYEAEISTRPCLALAPDSPDNDLRAGQFGISARKPFTTLGEVAPVWVPDSQAPNCMKCEARFTFTKRRHHCRACGKVFCASCCSLKCKLLYMDRKEARVCVICHSVLMNAQAWENMMSASSQSPNPNNPAEYCSTIPPLQQAQASGALSSPPPTVMVPVGVLKHPGAEVAQPREQRRVWFADGILPNGEVADAAKLTMNGTSSAGTLAVSHDPVKPVTTSPLPAETDICLFSGSITQVGSPVGSAMNLIPEDGLPPILISTGVKGDYAVEEKPSQISVMQQLEDGGPDPLVFVLNANLLSMVKIVNYVNRKCWCFTTKGMHAVGQSEIVILLQCLPDEKCLPKDIFNHFVQLYRDALAGNVVSNLGHSFFSQSFLGSKEHGGFLYVTSTYQSLQDLVLPTPPYLFGILIQKWETPWAKVFPIRLMLRLGAEYRLYPCPLFSVRFRKPLFGETGHTIMNLLADFRNYQYTLPVVQGLVVDMEVRKTSIKIPSNRYNEMMKAMNKSNEHVLAGGACFNEKADSHLVCVQNDDGNYQTQAISIHNQPRKVTGASFFVFSGALKSSSGYLAKSSIVEDGVMVQITAENMDSLRQALREMKDFTITCGKADAEEPQEHIHIQWVDDDKNVSKGVVSPIDGKSMETITNVKIFHGSEYKANGKVIRWTEVFFLENDDQHNCLSDPADHSRLTEHVAKAFCLALCPHLKLLKEDGMTKLGLRVTLDSDQVGYQAGSNGQPLPSQYMNDLDSALVPVIHGGACQLSEGPVVMELIFYILENIV
B7: the binding entry in assay [1] and in assay [2] was “binds” throughout.

B8: CHMP4B lacking the C-terminal six amino acids (C4BΔCT), yeast two-hybrid construct (domain or fragment, UniProt Q9H444 1-218)
chain: MSVFGKLFGAGGGKAGKGGPTPQEAIQRLRDTEEMLSKKQEFLEKKIEQELTAAKKHGTKNKRAALQALKRKKRYEKQLAQIDGTLSTIEFQREALENANTNTEVLKNMGYAAKAMKAAHDNMDIDKVDELMQDIADQQELAEEISTAISKPVGFGEEFDEDELMAELEELEQEELDKNLLEISGPETVPLPNVPSIALPSKPAKKKEEEDDDMKELE
In the case of B8, in assay [1], the binding entry is recorded as “no binding”.
